In all, about 16,000 sequences were measured (“Z-score”: median about -0.37, highest 2% from about 3.2 on). Some of the results follow.
What follows are sequences tested on RBM10 RRM1-ZnF (GST-tagged construct) (assay: RNAcompete 7-mer binding Z-score; higher = stronger binding preference).
In short: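 In 1 ml Hepes pH 7.8 buffer with KCl, NaCl, glycerol, DTT, BSA and glutathione Sepharose beads, GST-tagged RBM10 constructs (20 pmol) were incubated for 30 min at 4°C with 1.5 nmol of a designed pool of 241 399 RNAs up to 41 nt. Four 2-min washes at 4°C followed, and bound RNA was detected by microarray hybridisation. Heptamer motif enrichment was expressed as a one-sided Z-score across probes containing each motif.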

Sequence | RNAcompete 7-mer binding Z-score
CUUCUAA | -0.821
UCUGGAU | -0.214
UAUUAGA | -0.0837
UAAGGCC | -0.311
CUCGAGG | 0.215
CCGCUGG | -0.168
GCGGCUG | 0.556
GGAACUC | 0.111
GGCUUGA | 0.264
UGGCACG | 0.449
ACGAUCA | -0.396
AGGAGCU | 0.729
UCCUUUA | -0.951
UAUUACC | -0.86
UAGCUAA | -0.292
CUUCGAU | -0.704
CCGCGCC | -0.292
GGGGAUC | 2.29
UUGGUUG | 0.917
UUUCCGG | -0.509
GGCGGUA | 1.48
UCGGGCG | 1.09
ACUUGUA | -0.649
GAUAGAG | 1.58

Sequence | RNAcompete 7-mer binding Z-score
UAGUACC | -0.769
AGUCCGG | -0.00246
GCCCGAG | -0.295
CAGUAAU | -0.314
GCUCCGC | -0.506
UUUGGUU | 0.482
GCAUGGA | 2.01
GCCUACA | -0.828
UCUGAAU | -0.759
CCUGCGU | -0.522
UCCCUCC | -0.457
CUACUGG | -0.233
CGCUGAU | -0.483
ACAUUUA | -0.694
UACAGCG | -0.168
AAAAGAG | 0.855
GACUGAG | 0.381
AUUAAUC | -0.552
UUAUGCG | -0.402
GCGCGCG | 0.579
UGGCUAG | 0.391
CCCAUUG | -0.704
UAAUGUA | -0.0707
AGGGAAC | 2.57

Sequence | RNAcompete 7-mer binding Z-score
UCUUCCU | -0.691
CAAAUGG | 0.852
CCUACUC | -0.698
GUUUACC | -0.467
GCGUUCU | -0.629
GUCUCAC | -0.629
GUCAAUA | -0.305
CAGAAAG | 0.566
AUAAGAU | -0.175
CGACUCU | -0.766
GACACGC | -0.522
AAAAGAC | -0.201
AUCAGGA | 0.923
AGCUCGA | -0.285
AGUACUA | -0.24
ACGAGAG | 0.725
CCGUAGC | -0.737
GGUUCUU | -0.269
CUAGGGC | 0.667
GACAGUU | -0.207
CAAGGUC | -0.00246
CGGACCG | -0.428
GAUACGA | 0.0723
CGAAACG | -0.253

Sequence | RNAcompete 7-mer binding Z-score
GUAUACA | 0.0593
AAGCCAU | -0.886
CGUCCAA | -0.604
UGCAAUA | -0.448
AUCAGUG | 0.173
UGUCUUC | -0.685
CUACUCA | -0.685
CUGUUUU | -0.841
AUCAGCG | -0.23
GGACGCA | 0.465
AGCAGGG | 3.04
GUGCAUG | 0.807
CGGUCGC | -0.0772
UGAGUGG | 2.58
UCAGAUG | 0.0268
CAGUAGC | -0.422
UCUUCUC | -0.85
AGAUAGA | 0.251
AAGCCUU | -0.938
UCAUUAG | -0.357
GUCGCAU | -0.275
AUAGUCC | -0.681
GGAUCUU | -0.194
CAAAGGC | -0.106

Sequence | RNAcompete 7-mer binding Z-score
CUGAGCG | 0.296
ACGAGUG | 0.872
ACAGAUC | -0.578
UAGACCU | -0.668
UCUGUUC | -0.74
GACCGCU | -0.821
CGAUACC | -0.574
UAACGAC | -0.649
UCAAUUC | -0.818
CUGGUAG | 0.657
AGAUCGC | -0.75
UUUACAG | -0.454
UUACCCC | -0.698
UCAGCGG | 0.309
AUAUAUC | -0.503
UGGCAAA | 0.777
GCAAUCA | -0.37
UAACGGC | -0.272
UAUUGUC | -0.584
GUUCAUC | -0.662
GCUUCGA | -0.581
UUUGUCC | -0.776
UACAGUU | -0.503
GAGCGCU | -0.477

Sequence | RNAcompete 7-mer binding Z-score
CGGUAGU | 0.287
UGGAAUU | 0.732
UCUUGGA | -0.223
AAGACGC | -0.0609
CAUUUUU | -0.997
GUGCCAU | -0.503
AUCAACU | -0.662
UGUAUAU | -0.318
CACUGCU | -0.86
UCGCAGG | 0.355
ACCCUAC | -0.795
CAUGCCC | -0.681
CUGUUUC | -0.711
UGCUUUC | -0.772
GGGAUUG | 3.5
UUCGCGU | -0.578
GCUGCAC | -0.272
AGUGUAA | 0.553
CUUCACC | -0.785
ACGGUGU | 1
GUUGUAA | 0.147
GUGAGCG | 1.86
GUGGACG | 2.17
UGGGGAC | 3.17

Sequence | RNAcompete 7-mer binding Z-score
CGGCGAA | 0.313
UAAUUCG | -0.451
CGUCGCA | -0.477
AUGGACG | 2.69
GUUAACU | -0.321
GAUUCUC | -0.649
GAUGGCC | -0.0544
AGAAAUG | 1.12
AGAGAUC | -0.422
GUCAACC | -0.672
GUCAUCU | -0.675
UAGACUC | -0.73
UGCGCGU | -0.119
CUUACCG | -0.75
GAAAUAA | -0.259
UCCUAUC | -0.857
UCAGCCA | -0.659
UAGUAAA | -0.129
UAAGGUU | 2.04
UUGGUUU | 0.92
CAGGCGC | 0.0365
CGUAGCC | -0.6
CGGAGUC | 0.147
UAAUUUG | -0.513

Sequence | RNAcompete 7-mer binding Z-score
UUUUGAA | -0.61
CACGUAA | -0.35
UUCCAUA | -0.763
UUUUAAG | -0.571
UGAUAAG | 0.244
CCAGGGU | 1.29
GACACGU | -0.24
CUUAUGG | -0.262
GUGGAAC | 1.61
AGGUCUA | -0.288
GUCGGGG | 2.71
AAUAUCG | -0.392
CUUAACC | -0.828
AUCGAGC | -0.34
AAUUUUG | -0.642
UGGGAGC | 2.86
CCAGGCG | 0.192
CGCAAUC | -0.665
GCGGCUU | -0.178
UUGACAA | -0.548
AUGUUUG | 0.176
ACGUAAU | -0.529
GAAAGAC | 0.0885
CAACCAC | -0.642

Sequence | RNAcompete 7-mer binding Z-score
UUAUAAU | -0.448
UGACCUG | -0.668
CAAGGCC | -0.331
ACUUCGA | -0.626
CUUUCCG | -0.85
AGUAUAG | 0.716
UAAUUUA | -0.655
GCUUAAG | -0.158
AUCCGAU | -0.717
CAUCUUG | -0.88
CUUGAGC | -0.844
ACAGUUG | -0.123
UUCGGGU | 0.988
AGCAUAC | -0.418
UCGAUCU | -0.571
CCUUUCU | -0.88
CGGAGGA | 1.65
AUUGAAU | -0.0804
AACCGGC | -0.6
GGUCCAU | -0.519
UCGCGCA | -0.578
GCAGUUA | -0.0902
GGUGCCA | 0.725
CGGGUUC | 0.777

Sequence | RNAcompete 7-mer binding Z-score
AAGAGGG | 2.96
UGGAGCG | 2.91
GGUGAAU | 1.48
GACAGCG | 0.183
AUAUAAU | -0.285
AGCGUCA | -0.353
GGGAUCA | 1.78
CCGGCUC | -0.581
CGGUAAA | 0.29
GAGAAUA | 0.634
CAGAGCG | 0.595
UGCUAGG | 0.602
UUUAGAA | -0.548
CGUAUCG | -0.539
UGUGCGG | 1.66
GGGAAUG | 3.93
UUAUCCC | -0.896
AAAAUCU | -0.552

From the supplement of paper PMC5499739
